Data on 42 compounds can be found in ChEMBL document CHEMBL4888484, “Replenishing the malaria drug discovery pipeline: Screening and hit evaluation of the MMV Hit Generation Library 1 (HGL1) against asexual blood stage Plasmodium falciparum ,using a nano luciferase reporter read-out” (2022).

Molecules are shown by their SMILES. Hit rate of the full screen: of about 150,000 compounds, about 540 (0.36%) showed an effect of 50% or more. The list shows a part of the results.

This assay deals with Plasmodium falciparum. The assay can be described thus: Primary screen in NF54 nanoGlo assay, in single point, at 2uM, 72h; a lower Z score goes with more inhibition. It counts as functional, Erythrocyte. Particulars: timepoint 72 hour.
For the compound `O=C1C[C@H](N2CCN(S(=O)(=O)c3ccc(F)cc3)CC2)C(=O)N1Cc1ccc(Cl)cc1`, the “% Inhibition” value is -1% and the Z score was determined as 0.09.

In the case of `CCOc1ccccc1C(=O)Nc1c(C)nc(Nc2ccc(OC)cc2)nc1Nc1ccc(OC)cc1`, the “% Inhibition” value is on record as -13% and the Z score came out at 2.51.

As to `CN(C)c1ccc(NC(=O)[C@@]2(C)CC2(Cl)Cl)cn1`, the “% Inhibition” value was determined as 1% and the Z score is -0.19.

With `CC1(c2nccc(NC(=O)c3ccc(Cl)o3)n2)CC1`, the “% Inhibition” value is -15% and the Z score turned out to be 1.69.

Take `O=C(c1cc2c(s1)CCC2)N1CCC[C@@]2(CCS(=O)(=O)C2)C1`: the “% Inhibition” value is listed as -5% and the Z score is recorded as 0.68.

With `Cc1cc(CNCc2cccnc2C)n(C)n1`, the “% Inhibition” value is -1% and the Z score stood at 0.09.

Take `CN(Cc1c[nH]c2nccnc12)[C@H]1CS(=O)(=O)c2ccc(Cl)cc21`: the “% Inhibition” value is reported as 2% and the Z score was -0.38.

On to `Cc1cc(C)nc(-n2nc(-c3ccc(Cl)cc3)c3c2NC(=O)C[C@@H]3c2cccc(O)c2)n1`, for which the “% Inhibition” value is recorded as -1% and the Z score is 0.09.

Take `O=C(Nc1cc(F)ccc1OC(F)F)c1cnc2n1CCOC2`: the “% Inhibition” value was -7% and the Z score amounted to 0.69.

With `C[C@@H](CCNC(=O)c1cccn1-c1cccnc1)N1CCCCCC1`, the “% Inhibition” value was -2% and the Z score is on record as 0.16.

With `O=C(NCCc1ccco1)NC1CCCC1`, the “% Inhibition” value is -1% and the Z score was 0.14.

As to `CC(=O)C1=C(c2ccccc2)S/C(=C2/C(=S)C(C)(C)Nc3cc(C)ccc32)S1`, the “% Inhibition” value is reported as -41% and the Z score is 4.8.

Regarding `CC1CN(CC(O)CC(F)(F)F)CCN1C(=O)OC(C)(C)C` (centres undefined), the “% Inhibition” value came to 8% and the Z score is -1.13.

Turning to `Clc1c[nH]c2nc(-c3ccccn3)nc-2c1`, the “% Inhibition” value was -9% and the Z score is 1.15.

On to `CC(C)(CNC(=O)[C@@H]1CN(S(=O)(=O)c2ccccc2Cl)CCO1)Oc1ccccc1`, for which the “% Inhibition” value is reported as -7% and the Z score is 0.82.

Regarding `C=CCN(CCOc1ccc(C#N)cc1)[C@H]1CCS(=O)(=O)C1`, the “% Inhibition” value is listed as -6% and the Z score was found to be 0.58.

Turning to `Cc1ncc2c(c1-c1nn[nH]n1)-c1ccccc1CC2`, the “% Inhibition” value is -12% and the Z score is 1.52.

As for `Cc1ccc(-c2nc3cc(F)ccc3cc2CN2CCC[C@H]2C(N)=O)cc1`, the “% Inhibition” value was -13% and the Z score is on record as 1.68.

As for `Cc1nc(C(=O)NCCCN2CCOCC2)c(C)s1`, the “% Inhibition” value was determined as 10% and the Z score is listed as -1.34.

Consider `O=S(=O)(NCCc1ccncc1)C1CC1`, for which the “% Inhibition” value is given as -10% and the Z score is recorded as 1.48.

For `C#CCN1CCCC[C@H]1C(=O)NCc1nc(-c2ccco2)n[nH]1`, the “% Inhibition” value is -3% and the Z score is reported as 0.53.

As to `Cc1nocc1NC(=O)N1CCC[C@]1(C)Cc1ccc(Cl)s1`, the “% Inhibition” value was 20% and the Z score is -2.49.

As to `O=C(c1cn(CC(=O)N2CCCC2)c2ccccc12)C1CCCCC1`, the “% Inhibition” value came to 24% and the Z score is on record as -2.71.

On to `Cc1cc(CN2CC[C@H](CNC(=O)C3CCCCCC3)C2)[nH]n1`, for which the “% Inhibition” value is -3% and the Z score came to 0.65.

For the compound `O=C(N[C@H]1COC[C@H]1n1ccnn1)N1CCC2(C=Cc3ccccc3O2)CC1`, the “% Inhibition” value is recorded as 0% and the Z score is recorded as -0.06.

For `C[C@H]1COCCN1Cc1nc2cc(Br)cnc2[nH]1`, the “% Inhibition” value was -14% and the Z score is 2.92.

`Cc1cc(C)c2c(C)c(C(=O)NC[C@@H](c3ccco3)N3CCCC3)oc2c1`: the “% Inhibition” value is given as 12% and the Z score is -1.36.

Consider `Cn1ccnc1CN(C(=O)C1CC(c2ccc(F)cc2)C1)[C@H]1CC12CCNCC2` (some centres undefined), for which the “% Inhibition” value was -5% and the Z score was determined as 0.61.

For the compound `COc1ccc(-n2ccnc(NC(=O)c3ccc(F)cc3)c2=O)c(C)c1`, the “% Inhibition” value is listed as -11% and the Z score was 1.43.

For `Cc1cc(C)c2oc(N3CCn4cnnc4[C@@H]3C)nc2c1`, the “% Inhibition” value is -2% and the Z score amounted to 0.35.

Turning to `Cc1nccnc1CCNC(=O)N1CC2CCCCC2C1` (centres undefined), the “% Inhibition” value came out at 1% and the Z score was -0.18.

As for `O=C(NC1CC1)c1ccccc1NC(=O)c1cccc[n+]1[O-]`, the “% Inhibition” value is listed as 8% and the Z score was -1.2.

As for `Cc1cc(NC(=O)CN(C)C2CCCCCC2)on1`, the “% Inhibition” value was determined as 11% and the Z score is -1.

On to `O=C(c1cn[nH]c1)N1C[C@@H]2[C@@](C(F)(F)F)(CCCS2(=O)=O)C1`, for which the “% Inhibition” value is -13% and the Z score is given as 2.33.

Turning to `CCCCCC(=O)N[C@H]1CCN(Cc2c(C)noc2C)C[C@@H]1O`, the “% Inhibition” value was -22% and the Z score was 1.98.

For the compound `CC(C)c1cc(C(=O)N[C@H]2[C@@H]3COC[C@@H]32)no1`, the “% Inhibition” value is reported as -10% and the Z score stood at 1.59.

On to `CO[C@H]1[C@H](NC(=O)COc2ccccc2)c2ccccc2C12CCN(C(=O)c1c(C)noc1C)CC2`, for which the “% Inhibition” value is recorded as -7% and the Z score is on record as 1.24.

Take `CC(C)Nc1ccc(C(F)(F)F)cn1`: the “% Inhibition” value was -1% and the Z score is given as 0.29.

`COC(=O)CC(=O)Nc1ccccc1Cl`: the “% Inhibition” value was -17% and the Z score came out at 1.58.

In the case of `O=C(NCc1cccc(Cl)c1)c1cc2n(n1)C[C@@H](c1ccc3c(c1)OCO3)OC2`, the “% Inhibition” value is -19% and the Z score was 3.24.

On to `C=CCCCC(C)NC(=O)N1CC(C)OC(CO)C1` (centres undefined), for which the “% Inhibition” value is given as -11% and the Z score came out at 1.18.

Regarding `Cn1cccc1C(=O)NCC1(C)CCOCC1`, the “% Inhibition” value was -7% and the Z score is 1.27.
